Test results from PubChem BioAssay AID504332 (National Center for Advancing Translational Sciences (NCATS), 2011).
In all, about 350,000 compounds went through this assay and about 31,000 (8.9%) were called active. This list was built around the results that the source calls inconclusive (neither active nor inactive); the mix of calls is not that of the screen. The call rests on the fitted dose curve; in most records, active means well fitted inhibition curve with a large enough effect; inconclusive means small, poorly fitted or top-dose-only effect; inactive means no such curve, though single readings can be large or run the other way. A potency beside an inconclusive call is a rough fit, not a confirmed value.

Biological target: Histone-lysine N-methyltransferase EHMT2 (Homo sapiens) (UniProt Q96KQ7)
Chain of UniProt Q96KQ7 (Q96KQ7 whole entry, looked up): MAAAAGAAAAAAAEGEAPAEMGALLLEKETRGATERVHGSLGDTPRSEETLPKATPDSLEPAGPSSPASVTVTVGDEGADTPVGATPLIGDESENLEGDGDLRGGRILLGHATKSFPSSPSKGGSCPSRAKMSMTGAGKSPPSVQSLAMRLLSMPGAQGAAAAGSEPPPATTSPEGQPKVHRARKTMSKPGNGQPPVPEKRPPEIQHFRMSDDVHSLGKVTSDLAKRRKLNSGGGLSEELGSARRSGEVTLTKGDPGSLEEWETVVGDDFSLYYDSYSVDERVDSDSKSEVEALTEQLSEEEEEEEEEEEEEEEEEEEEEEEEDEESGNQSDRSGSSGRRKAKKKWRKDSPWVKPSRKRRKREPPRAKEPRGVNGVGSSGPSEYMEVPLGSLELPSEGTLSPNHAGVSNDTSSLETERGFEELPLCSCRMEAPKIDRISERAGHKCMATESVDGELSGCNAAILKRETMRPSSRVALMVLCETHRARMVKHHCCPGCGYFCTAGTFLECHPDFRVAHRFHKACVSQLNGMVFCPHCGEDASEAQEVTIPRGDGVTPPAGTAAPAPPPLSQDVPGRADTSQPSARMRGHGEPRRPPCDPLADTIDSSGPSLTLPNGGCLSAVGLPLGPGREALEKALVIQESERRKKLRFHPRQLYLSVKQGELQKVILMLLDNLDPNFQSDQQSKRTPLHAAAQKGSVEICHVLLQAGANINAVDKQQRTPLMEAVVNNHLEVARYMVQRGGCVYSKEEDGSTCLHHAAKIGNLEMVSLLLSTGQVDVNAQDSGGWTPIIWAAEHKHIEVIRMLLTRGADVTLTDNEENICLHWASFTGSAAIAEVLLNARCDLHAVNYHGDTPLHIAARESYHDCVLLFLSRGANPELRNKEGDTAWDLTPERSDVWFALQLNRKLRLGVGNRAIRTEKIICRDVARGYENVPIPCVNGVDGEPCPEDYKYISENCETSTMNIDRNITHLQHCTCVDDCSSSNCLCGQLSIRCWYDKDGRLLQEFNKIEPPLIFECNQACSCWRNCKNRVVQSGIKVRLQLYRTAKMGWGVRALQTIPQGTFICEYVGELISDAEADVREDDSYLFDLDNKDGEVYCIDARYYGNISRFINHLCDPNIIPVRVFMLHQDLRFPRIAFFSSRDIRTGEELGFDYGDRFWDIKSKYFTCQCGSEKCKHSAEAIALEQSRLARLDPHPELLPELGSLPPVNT
Assay: qHTS Assay for Inhibitors of Histone Lysine Methyltransferase G9a; further: nearly all actives have a fitted effect of over 75% in size
Conditions: G9a H3K9 monomethylation, AlphaScreen, 2 h; activity, negative = inhibition: at 59 µM (top of the series) unless noted
Outline: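 Step 1: enzyme (final 20 nM) with compound, 15 min RT. Step 2: substrate peptide 500 nM and SAM 20 uM, 2 h RT. Step 3: anti-H3K9me1 antibody and AlphaScreen beads, 10 min, then plate read.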
On the % scale 0 is the no-effect control and ±100 the full control effect; potency means the concentration at half of the fitted maximal effect; tags describe the fitted curve by direction and shape.

Row | Compound | Potency | activity, negative = inhibition
1 | COc1ccc(C2=NO[C@@H]3C(=O)N(Cc4ccccc4)C(=O)[C@H]23)cc1OC | inconclusive: 25.1 µM [inhibitor, single point] | 
2 | CCOc1ccc(S(=O)(=O)Nc2nc3ccccc3nc2Cl)cc1 |  | inactive: 6.63% [at 102 µM]
3 | COc1ccc(/C=N/Nc2nc(C)cc(-c3ccccc3)n2)c(OC)c1 |  | inactive: -1.04% [at 102 µM]
4 | c1cc2c(cc1-c1csc(NNC3=NCCCCC3)n1)OCCO2 | active: 6.31 µM | 
5 | CCOc1ccccc1C1C(C(N)=O)=C(C)Nc2nc(CCCO)nn21 (centres undefined) | inconclusive: 0.282 µM [inhibitor, partial curve, poor fit] | 
6 | Cc1c(Cl)cccc1-n1nnnc1-c1cccs1 |  | inactive: 5.41% [at 12.7 µM]
7 | COC(=O)c1cccc(OCC(O)Cn2cnc3cc(C)c(C)cc32)c1 (centres undefined) |  | inactive: 11.5% [at 102 µM]
8 | Cc1ccc(S(=O)(=O)N(CC(=O)O)c2ccc(Cl)c(C(F)(F)F)c2)cc1 | inconclusive: 3.55 µM [inhibitor, partial curve, poor fit] | 
9 | O=C(Cn1cnc2scc(-c3cccc([N+](=O)[O-])c3)c2c1=O)NCc1ccco1 |  | inactive: 10.8%
10 | S=c1[nH]nc(-c2cc(-c3ccccc3)n[nH]2)n1/N=C/c1ccc(Cl)c(Cl)c1 | inconclusive: 39.8 µM [inhibitor, partial curve] | 
11 | CCc1nc(N2CCN(Cc3ccc4c(c3)OCO4)CC2)c2oc3ccccc3c2n1 | inconclusive: 3.55 µM [inhibitor, partial curve, poor fit] | 
12 | COc1ccc(C(=O)c2c(C(F)(F)F)oc3c2C(=O)c2ccccc2C3=O)cc1 | active: 7.94 µM | 
13 | O=C(CCS(=O)(=O)c1ccccc1)N(Cc1cccnc1)c1nc2c(F)cccc2s1 | inconclusive: 3.55 µM [inhibitor, single point] | 
14 | COc1ccc(/C=C/c2nc(C#N)c(N3CCC(C(N)=O)CC3)o2)cc1OC |  | inactive: 4.78%
15 | CCn1c(SCC(=O)NNC(=O)c2ccc(OC)cc2)nnc1-c1ccco1 | inconclusive: 17.8 µM [inhibitor, partial curve, poor fit] | 
16 | O=C(O)c1cccc(NC(=S)NC(NC(=O)c2ccco2)C(Cl)(Cl)Cl)c1 (centres undefined) | inconclusive: 25.1 µM [inhibitor, partial curve, poor fit] | 
17 | CC1=NN(c2ccc(S(=O)(=O)O)cc2C)C(=O)C1 | active: 25.1 µM | 
18 | COc1ccccc1NC(=O)Cc1nnc(SCC(=O)Nc2ccccc2F)n1C |  | inactive: 7.81%
19 | Cc1cc(C)cc(NC(=S)NCc2ccc3[nH]c4c(c3c2)CCCC4)c1 | inconclusive: 39.8 µM [inhibitor, partial curve, poor fit] | 
